In patent US20110059076A1, “HUMAN SERUM ALBUMIN LINKERS AND CONJUGATES THEREOF” (priority 2008, published 2011):

Key:
Assay type in all cases: cell-based
Conditions in all cases: 24 hour pre-treatment, concentration of 10^−8 molar and above
[1] = tested on: phosphorylated ErbB3 in BT474 breast cancer cells; test: pErbB3 ELISA in BT474 cells after HRG stimulation
Procedure: (§1) Except as noted, ELISA reagents for total and phospho-ErbB3 ELISAs are purchased from R&D Systems as DUOSET kits. 96-well NUNC MAXISORB plates are coated with 50 μl of an antibody and incubated overnight at room temperature. Next morning, plates are washed 3 times with 1000 μl/well in a BIOTEK plate washer with Dulbecco's phosphate buffered saline without calcium or magnesium (PBS) with added Tween detergent (PBST) (0.05% Tween-20). […] The plates are washed 3 times with 1000 μl/well in the BIOTEK plate washer with PBST. Cells are grown at 37° C. and 5% carbon dioxide, washed with cold PBS, then harvested with mammalian protein extract (MPER) lysis buffer (Pierce, 78505) to which 150 mM NaCl, 5 mM sodium pyrophosphate, 10 uM bpV (phen), 50uM phenylarsine, 1 mM sodium orthovanadate, and protease inhibitor cocktail (Sigma, P2714) is added. 50 μL of cell lysates and standards diluted in 50% Lysis buffer and 1% BSA are used in duplicates for further processing. Samples are incubated for 2hrs at 4° C. on a plate shaker and washed as before. About 50 μl of a detection antibody diluted in 2% BSA, PBST is added and incubated for about 1-2 hrs at room temperature. […] About 50 μL of SUPERSIGNAL ELISA Pico (Thermo Scientific) substrate is added and the plate is read using a FUSION plate reader. […]

[2] = tested on: phosphorylated AKT in BT474 breast cancer cells; test: pAKT ELISA in BT474 cells after HRG stimulation
Procedure: as §1

[3] = tested on: phosphorylated ERK in BT474 breast cancer cells; test: pERK ELISA in BT474 cells after HRG stimulation
Procedure: as §1

B1: B1B2-1: HSA linker conjugate tested in Example 5; probably B1D2-1 (H3-HSA-B1D2), i.e. B2B3-1 (protein)
chain: QVQLQESGGGLVKPGGSLRLSCAASGFTFSSYWMSWVRQAPGKGLEWVANINRDGSASYYVDSVKGRFTISRDDAKNSLYLQMNSLRAEDTAVYYCARDRGVGYFDLWGRGTLVTVSSASTGGGGSGGGGSGGGGSQSALTQPASVSGSPGQSITISCTGTSSDVGGYNFVSWYQQHPGKAPKLMIYDVSDRPSGVSDRFSGSKSGNTASLIISGLQADDEADYYCSSYGSSSTHVIFGGGTKVTVLGAAS[about 600 residues omitted here]AAALQVQLVQSGAEVKKPGESLKISCKGSGYSFTSYWIAWVRQMPGKGLEYMGLIYPGDSDTKYSPSFQGQVTISVDKSVSTAYLQWSSLKPSDSAVYFCARHDVGYCTDRTCAKWPEWLGVWGQGTLVTVSSGGGGSSGGGSGGGGSQSVLTQPPSVSAAPGQKVTISCSGSSSNIGNNYVSWYQQLPGTAPKLLIYDHTNRPAGVPDRFSGSKSGTSASLAISGFRSEDEADYYCASWDYTLSGWVFGGGTKLTVLG
greater than 50%: inhibition of HRG-induced phosphorylation of ErbB3 [1] | inhibition of HRG-induced phosphorylation of AKT [2] | inhibition of HRG-induced phosphorylation of ERK [3]
